# According to the supplement of paper PMC8728848:
# This is one part of the list.
# B1: RBMC1 (Vibrio cholerae) (protein)
# chain: QQSQRVVTADNLMYLRSGFAIDAIGTTVNNLVGGPVQGTNGGVLRAPIALDQLQSVEVTSGLYNWGGYHIVAIKFTMKDGSSVLLGSTHYASNKKVETYTVPQGKRIKQINVWTGGWLVEGFQFVY
# Columns and labels:
# Assay in all cases: glycan array binding signal (z-score within array); higher = stronger binding
# Details in all cases: glycan notation: IUPAC condensed, linker removed
# [1] = target: GlcNAc(b1-2)Gal(b1-3)GalNAc
# Procedure, shortened: (§1)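 The binding signal is a Z-score computed within each array and averaged over linkers. Arrays of the same protein sequence at different concentrations or buffers were also averaged together. Data originate from 3228 arrays in the Consortium for Functional Glycomics database, kept only where the protein sequence was available.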
# [2] = target: GlcNAc(b1-2)Man(a1-3)[GlcNAc(b1-2)Man(a1-6)]Man(b1-4)GlcNAc(b1-4)GlcNAc
# Procedure, shortened: as §1
# [3] = target: GlcNAc(b1-2)Man(a1-3)[GlcNAc(b1-2)Man(a1-6)]Man(b1-4)GlcNAc(b1-4)[Fuc(a1-6)]GlcNAc
# Procedure, shortened: as §1
# [4] = target: GlcNAc(b1-2)Man(a1-3)[GlcNAc(b1-4)][GlcNAc(b1-2)Man(a1-6)]Man(b1-4)GlcNAc(b1-4)GlcNAc
# Procedure, shortened: as §1
# [5] = target: GlcNAc(b1-2)Man(a1-3)[GlcNAc(b1-4)][GlcNAc(b1-2)Man(a1-6)]Man(b1-4)GlcNAc(b1-4)[Fuc(a1-6)]GlcNAc
# Procedure, shortened: as §1
# [6] = target: GlcNAc(b1-2)[GlcNAc(b1-4)]Man(a1-3)[GlcNAc(b1-2)Man(a1-6)]Man(b1-4)GlcNAc(b1-4)GlcNAc
# Procedure, shortened: as §1
# [7] = target: GlcNAc(b1-2)[GlcNAc(b1-4)]Man(a1-3)[GlcNAc(b1-4)][GlcNAc(b1-2)Man(a1-6)]Man(b1-4)GlcNAc(b1-4)GlcNAc
# Procedure, shortened: as §1
# [8] = target: GlcNAc(b1-2)[GlcNAc(b1-4)]Man(a1-3)[GlcNAc(b1-4)][GlcNAc(b1-2)[GlcNAc(b1-6)]Man(a1-6)]Man(b1-4)GlcNAc(b1-4)GlcNAc
# Procedure, shortened: as §1
# [9] = target: GlcNAc(b1-2)[GlcNAc(b1-4)]Man(a1-3)[GlcNAc(b1-4)][GlcNAc(b1-2)[GlcNAc(b1-6)]Man(a1-6)]Man(b1-4)GlcNAc(b1-4)[Fuc(a1-6)]GlcNAc
# Procedure, shortened: as §1
# [10] = target: GlcNAc(b1-2)[GlcNAc(b1-6)]Man(a1-6)[GlcNAc(b1-2)Man(a1-3)]Man(b1-4)GlcNAc(b1-4)GlcNAc
# Procedure, shortened: as §1
# [11] = target: GlcNAc(b1-2)[GlcNAc(b1-6)]Man(a1-6)[GlcNAc(b1-2)Man(a1-3)]Man(b1-4)GlcNAc(b1-4)[Fuc(a1-6)]GlcNAc
# Procedure, shortened: as §1
# [12] = target: GlcNAc(b1-2)[GlcNAc(b1-6)]Man(a1-6)[GlcNAc(b1-4)][GlcNAc(b1-2)Man(a1-3)]Man(b1-4)GlcNAc(b1-4)GlcNAc
# Procedure, shortened: as §1
# GlcNAc(b1-3)Fuc = target: GlcNAc(b1-3)Fuc
# Procedure, shortened: as §1
# GlcNAc(b1-3)Gal = target: GlcNAc(b1-3)Gal
# Procedure, shortened: as §1
# [13] = target: GlcNAc(b1-3)Gal(b1-3)GalNAc
# Procedure, shortened: as §1
# GlcNAc(b1-3)Gal(b1-4)Glc = target: GlcNAc(b1-3)Gal(b1-4)Glc
# Procedure, shortened: as §1
# [14] = target: GlcNAc(b1-3)Gal(b1-4)GlcNAc
# Procedure, shortened: as §1
# [15] = target: GlcNAc(b1-3)Gal(b1-4)GlcNAc(b1-2)Man(a1-3)[GlcNAc(b1-3)Gal(b1-4)GlcNAc(b1-2)Man(a1-6)]Man(b1-4)GlcNAc(b1-4)GlcNAc
# Procedure, shortened: as §1
# [16] = target: GlcNAc(b1-3)Gal(b1-4)GlcNAc(b1-2)Man(a1-3)[GlcNAc(b1-3)Gal(b1-4)GlcNAc(b1-2)Man(a1-6)]Man(b1-4)GlcNAc(b1-4)[Fuc(a1-6)]GlcNAc
# Procedure, shortened: as §1
# [17] = target: GlcNAc(b1-3)Gal(b1-4)GlcNAc(b1-2)[GlcNAc(b1-3)Gal(b1-4)GlcNAc(b1-6)]Man(a1-6)[GlcNAc(b1-3)Gal(b1-4)GlcNAc(b1-2)Man(a1-3)]Man(b1-4)GlcNAc(b1-4)GlcNAc
# Procedure, shortened: as §1
# [18] = target: GlcNAc(b1-3)Gal(b1-4)GlcNAc(b1-3)Gal(b1-4)GlcNAc
# Procedure, shortened: as §1
# [19] = target: GlcNAc(b1-3)Gal(b1-4)GlcNAc(b1-3)Gal(b1-4)GlcNAc(b1-2)Man(a1-3)[GlcNAc(b1-3)Gal(b1-4)GlcNAc(b1-3)Gal(b1-4)GlcNAc(b1-2)Man(a1-6)]Man(b1-4)GlcNAc(b1-4)GlcNAc
# Procedure, shortened: as §1
# [20] = target: GlcNAc(b1-3)Gal(b1-4)GlcNAc(b1-3)Gal(b1-4)GlcNAc(b1-2)Man(a1-3)[GlcNAc(b1-3)Gal(b1-4)GlcNAc(b1-3)Gal(b1-4)GlcNAc(b1-2)Man(a1-6)]Man(b1-4)GlcNAc(b1-4)[Fuc(a1-6)]GlcNAc
# Procedure, shortened: as §1
# [21] = target: GlcNAc(b1-3)Gal(b1-4)GlcNAc(b1-3)Gal(b1-4)GlcNAc(b1-2)[GlcNAc(b1-3)Gal(b1-4)GlcNAc(b1-3)Gal(b1-4)GlcNAc(b1-6)]Man(a1-6)[GlcNAc(b1-3)Gal(b1-4)GlcNAc(b1-3)Gal(b1-4)GlcNAc(b1-2)Man(a1-3)]Man(b1-4)GlcNAc(b1-4)[Fuc(a1-6)]GlcNAc
# Procedure, shortened: as §1
# [22] = target: GlcNAc(b1-3)Gal(b1-4)GlcNAc(b1-3)Gal(b1-4)GlcNAc(b1-3)Gal(b1-4)GlcNAc(b1-2)Man(a1-3)[GlcNAc(b1-3)Gal(b1-4)GlcNAc(b1-3)Gal(b1-4)GlcNAc(b1-3)Gal(b1-4)GlcNAc(b1-2)Man(a1-6)]Man(b1-4)GlcNAc(b1-4)GlcNAc
# Procedure, shortened: as §1
# [23] = target: GlcNAc(b1-3)Gal(b1-4)GlcNAc(b1-3)Gal(b1-4)GlcNAc(b1-3)Gal(b1-4)GlcNAc(b1-2)Man(a1-3)[GlcNAc(b1-3)Gal(b1-4)GlcNAc(b1-3)Gal(b1-4)GlcNAc(b1-3)Gal(b1-4)GlcNAc(b1-2)Man(a1-6)]Man(b1-4)GlcNAc(b1-4)[Fuc(a1-6)]GlcNAc
# Procedure, shortened: as §1
# [24] = target: GlcNAc(b1-3)Gal(b1-4)GlcNAc(b1-3)Gal(b1-4)GlcNAc(b1-3)Gal(b1-4)GlcNAc(b1-2)[GlcNAc(b1-3)Gal(b1-4)GlcNAc(b1-3)Gal(b1-4)GlcNAc(b1-3)Gal(b1-4)GlcNAc(b1-6)]Man(a1-6)[GlcNAc(b1-3)Gal(b1-4)GlcNAc(b1-3)Gal(b1-4)GlcNAc(b1-3)Gal(b1-4)GlcNAc(b1-2)Man(a1-3)]Man(b1-4)GlcNAc(b1-4)[Fuc(a1-6)]GlcNAc
# Procedure, shortened: as §1
# [25] = target: GlcNAc(b1-3)Gal(b1-4)GlcNAc(b1-3)Gal(b1-4)GlcNAc(b1-3)Gal(b1-4)GlcNAc(b1-3)Gal(b1-4)GlcNAc(b1-2)Man(a1-3)[GlcNAc(b1-3)Gal(b1-4)GlcNAc(b1-3)Gal(b1-4)GlcNAc(b1-3)Gal(b1-4)GlcNAc(b1-3)Gal(b1-4)GlcNAc(b1-2)Man(a1-6)]Man(b1-4)GlcNAc(b1-4)GlcNAc
# Procedure, shortened: as §1
# [26] = target: GlcNAc(b1-3)Gal(b1-4)GlcNAc(b1-3)Gal(b1-4)GlcNAc(b1-3)Gal(b1-4)GlcNAc(b1-3)Gal(b1-4)GlcNAc(b1-2)Man(a1-3)[GlcNAc(b1-3)Gal(b1-4)GlcNAc(b1-3)Gal(b1-4)GlcNAc(b1-3)Gal(b1-4)GlcNAc(b1-3)Gal(b1-4)GlcNAc(b1-2)Man(a1-6)]Man(b1-4)GlcNAc(b1-4)[Fuc(a1-6)]GlcNAc
# Procedure, shortened: as §1
# [27] = target: GlcNAc(b1-3)Gal(b1-4)GlcNAc(b1-3)Gal(b1-4)GlcNAc(b1-3)Gal(b1-4)GlcNAc(b1-3)Gal(b1-4)GlcNAc(b1-2)[GlcNAc(b1-3)Gal(b1-4)GlcNAc(b1-3)Gal(b1-4)GlcNAc(b1-3)Gal(b1-4)GlcNAc(b1-3)Gal(b1-4)GlcNAc(b1-6)]Man(a1-6)[GlcNAc(b1-3)Gal(b1-4)GlcNAc(b1-3)Gal(b1-4)GlcNAc(b1-3)Gal(b1-4)GlcNAc(b1-3)Gal(b1-4)GlcNAc(b1-2)Man(a1-3)]Man(b1-4)GlcNAc(b1-4)[Fuc(a1-6)]GlcNAc
# Procedure, shortened: as §1
# [28] = target: GlcNAc(b1-3)Gal(b1-4)GlcNAc(b1-3)Gal(b1-4)GlcNAc(b1-3)GalNAc
# Procedure, shortened: as §1
# [29] = target: GlcNAc(b1-3)Gal(b1-4)GlcNAc(b1-3)GalNAc
# Procedure, shortened: as §1
# [30] = target: GlcNAc(b1-3)Gal(b1-4)GlcNAc(b1-3)[GlcNAc(b1-3)Gal(b1-4)GlcNAc(b1-3)]GalNAc
# Procedure, shortened: as §1
# [31] = target: GlcNAc(b1-3)Gal(b1-4)GlcNAc(b1-6)[Gal(b1-3)]GalNAc
# Procedure, shortened: as §1
# [32] = target: GlcNAc(b1-3)Gal(b1-4)GlcNAc(b1-6)[GlcNAc(b1-3)Gal(b1-3)]GalNAc
# Procedure, shortened: as §1
# [33] = target: GlcNAc(b1-3)Gal(b1-4)GlcNAc(b1-6)[GlcNAc(b1-3)]Gal(b1-4)GlcNAc
# Procedure, shortened: as §1
# GlcNAc(b1-3)GalNAc = target: GlcNAc(b1-3)GalNAc
# Procedure, shortened: as §1
# GlcNAc(b1-3)Man = target: GlcNAc(b1-3)Man
# Procedure, shortened: as §1
# [34] = target: GlcNAc(b1-3)[GlcNAc(b1-4)][GlcNAc(b1-6)]GlcNAc
# Procedure, shortened: as §1
# [35] = target: GlcNAc(b1-3)[GlcNAc(b1-6)]Gal(b1-4)GlcNAc
# Procedure, shortened: as §1
# [36] = target: GlcNAc(b1-3)[GlcNAc(b1-6)]GalNAc
# Procedure, shortened: as §1
# [37] = target: GlcNAc(b1-4)Gal(b1-4)GlcNAc
# Procedure, shortened: as §1
# GlcNAc(b1-4)GlcNAc = target: GlcNAc(b1-4)GlcNAc
# Procedure, shortened: as §1
# [38] = target: GlcNAc(b1-4)GlcNAc(b1-4)GlcNAc
# Procedure, shortened: as §1
# [39] = target: GlcNAc(b1-4)GlcNAc(b1-4)GlcNAc(b1-4)GlcNAc(b1-4)GlcNAc
# Procedure, shortened: as §1
binder,measurement,setting,value
B1,glycan array binding signal (z-score),[1],-0.185
same,glycan array binding signal (z-score),[2],1.81
same,glycan array binding signal (z-score),[3],0.419
same,glycan array binding signal (z-score),[4],-0.075
same,glycan array binding signal (z-score),[5],-0.214
same,glycan array binding signal (z-score),[6],0.957
same,glycan array binding signal (z-score),[7],-0.109
same,glycan array binding signal (z-score),[8],-0.345
same,glycan array binding signal (z-score),[9],-0.26
same,glycan array binding signal (z-score),[10],-0.265
same,glycan array binding signal (z-score),[11],-0.256
same,glycan array binding signal (z-score),[12],-0.405
same,glycan array binding signal (z-score),GlcNAc(b1-3)Fuc,-0.337
same,glycan array binding signal (z-score),GlcNAc(b1-3)Gal,-0.336
same,glycan array binding signal (z-score),[13],-0.195
same,glycan array binding signal (z-score),GlcNAc(b1-3)Gal(b1-4)Glc,-0.395
same,glycan array binding signal (z-score),[14],-0.434
same,glycan array binding signal (z-score),[15],1.91
same,glycan array binding signal (z-score),[16],2.83
same,glycan array binding signal (z-score),[17],-0.295
same,glycan array binding signal (z-score),[18],-0.354
same,glycan array binding signal (z-score),[19],0.504
same,glycan array binding signal (z-score),[20],2.5
same,glycan array binding signal (z-score),[21],-0.261
same,glycan array binding signal (z-score),[22],1.38
same,glycan array binding signal (z-score),[23],1.96
same,glycan array binding signal (z-score),[24],-0.366
same,glycan array binding signal (z-score),[25],1.54
same,glycan array binding signal (z-score),[26],0.918
same,glycan array binding signal (z-score),[27],-0.273
same,glycan array binding signal (z-score),[28],-0.387
same,glycan array binding signal (z-score),[29],-0.108
same,glycan array binding signal (z-score),[30],-0.258
same,glycan array binding signal (z-score),[31],-0.288
same,glycan array binding signal (z-score),[32],-0.181
same,glycan array binding signal (z-score),[33],-0.272
same,glycan array binding signal (z-score),GlcNAc(b1-3)GalNAc,-0.294
same,glycan array binding signal (z-score),GlcNAc(b1-3)Man,0.118
same,glycan array binding signal (z-score),[34],-0.158
same,glycan array binding signal (z-score),[35],-0.379
same,glycan array binding signal (z-score),[36],-0.416
same,glycan array binding signal (z-score),[37],-0.362
same,glycan array binding signal (z-score),GlcNAc(b1-4)GlcNAc,1.84
same,glycan array binding signal (z-score),[38],-0.085
same,glycan array binding signal (z-score),[39],-0.358
